Results: the supplement of paper PMC10600219
Counter-ions that a name gives are not always drawn. In all, about 2,800 compounds were measured (“cell viability relative to vehicle”: median about 0.98, lowest 2% from about 0.45 on). Some of the results follow.

Test system: NCI-H2228 alectinib-DTP
Assay: cell viability relative to vehicle (fraction of vehicle); NCI-H2228 is an ALK-positive lung cancer line and DTP means drug-tolerant persister; higher = less growth inhibition
Settings: 100 nM; treatment time 6 days
Procedure, shortened: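 The 3114-agent TargetMol anti-cancer compound library was tested at 100 nM for 6 days on parental NCI-H2228 cells and on persister cells derived with 1000 nM of a targeted drug for 13 days. ATP readout by the CellTiter-Glo 3D Cell Viability Assay gave cell viability relative to DMSO vehicle-treated cells.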

Q: Which cell viability does the source give for `O=C(O)/C=C/c1ccc(O)c(O)c1` [Caffeic Acid] here?
A: 0.958

Q: For `CC1(C)CC(=O)c2c(C(F)(F)F)nn(-c3ccc(C(N)=O)c(N[C@H]4CC[C@H](O)CC4)c3)c2C1`, which cell viability is on record?
A: 0.491

Q: How did the cell viability turn out when `COc1c2c(cc3c1-c1c(cc4c(c1OC)OCO4)C[C@H](C)[C@H](C)C3)OCO2` [Schisandrin C] was run?
A: 1.11

Q: Which cell viability does the source give for `COc1cc2nc(N(C)CCCNC(=O)C3CCCO3)nc(N)c2cc1OC` (stereo unspecified) [Alfuzosin hydrochloride] here?
A: 1.18

Q: How did the cell viability turn out when `Clc1ccc(Cn2c(CN3CCCC3)nc3ccccc32)cc1` [Clemizole] was run?
A: 0.828

Q: Which cell viability does the source give for `Clc1ccc(CO/N=C(\Cn2ccnc2)c2ccc(Cl)cc2Cl)c(Cl)c1` [Oxiconazole nitrate] here?
A: 1.04

Q: How did the cell viability turn out when `COc1ccc(-c2ccc3ncc4c(c3c2)n(-c2ccc(N3CCNCC3)c(C(F)(F)F)c2)c(=O)n4C)cn1` was run?
A: 0.373

Q: With `O=C(Nc1ccc(C(O)(C(F)(F)F)C(F)(F)F)cc1)c1ccc(C(F)(F)F)cc1` as the compound, how does the cell viability read?
A: 0.963

Q: How did the cell viability turn out when `CC(=O)O[C@]1(C(C)=O)CC[C@H]2[C@@H]3C=C(Cl)C4=CC(=O)[C@@H]5C[C@@H]5[C@]4(C)[C@H]3CC[C@@]21C` [Cyproterone acetate] was run?
A: 0.913

Q: For `CC(C)c1cc(-c2n[nH]c(=O)n2-c2ccc3c(ccn3C)c2)c(O)cc1O` [Ganetespib], which cell viability is on record?
A: 0.508

Q: With `N[C@H]1C[C@@H]1c1ccc(-c2cccc(O)c2)cc1` as the compound, how does the cell viability read?
A: 1.01

Q: How did the cell viability turn out when `CCCCNc1ncc2c(-c3ccc(CN4CCN(C)CC4)cc3)cn(C3CCC(O)CC3)c2n1` (stereo unspecified) was run?
A: 0.738

Q: With `O=C(O)COCCN1CCN(C(c2ccccc2)c2ccc(Cl)cc2)CC1` (stereo unspecified) [Cetirizine dihydrochloride] as the compound, how does the cell viability read?
A: 1.19

Q: `C=C1C[C@@]2(O)O[C@@]3(C[C@H]2C(C)C)[C@@H](C)CC[C@@H]13` [Curcumol] was tested. Which cell viability did it give?
A: 0.962

Q: Which cell viability does the source give for `C=CC(=O)Nc1cccc(Nc2nc(Nc3ccc(Oc4ccnc(C(=O)NC)c4)cc3)ncc2F)c1` here?
A: 0.962

Q: For `CCCSc1nc(N[C@@H]2C[C@H]2c2ccc(F)c(F)c2)c2nnn([C@@H]3C[C@H](OCCO)[C@@H](O)[C@H]3O)c2n1` [Ticagrelor], which cell viability is on record?
A: 1.19

Q: For `N#Cc1ccc(-c2c(-c3ncn[nH]3)sc(N3CCOCC3)c2C#N)c(F)c1`, which cell viability is on record?
A: 0.788

Q: `c1ccc(C2CN3CCSC3=N2)cc1` (stereo unspecified) [Tetramisole hydrochloride] was tested. Which cell viability did it give?
A: 1.05

Q: Which cell viability does the source give for `COC(=O)c1cc(O)c(O)c(O)c1` [Methyl gallate] here?
A: 1.07

Q: `COc1cc2c(cc1OC)[C@@H](Cc1ccc(Oc3cc(C[C@@H]4c5cc(OC)c(OC)cc5CCN4C)ccc3O)cc1)N(C)CC2` [Dauricine] was tested. Which cell viability did it give?
A: 1.05

Q: For `Cn1c(=O)c2nc[nH]c2n(C)c1=O` [Theophylline], which cell viability is on record?
A: 1.13

Q: `CC(=O)O[C@H](CC=C(C)C)C1=CC(=O)c2c(O)ccc(O)c2C1=O` [Acetyl shikonin] was tested. Which cell viability did it give?
A: 1.05

Q: `CC(C)(C)c1[nH]cnc1/C=c1\[nH]c(=O)/c(=C/c2ccccc2)[nH]c1=O` [Plinabulin] was tested. Which cell viability did it give?
A: 0.597

Q: For `COc1cc2c(Oc3ccc4[nH]c(C)cc4c3F)ccnc2cc1OCC1(N)CC1` [Anlotinib], which cell viability is on record?
A: 0.936

Q: How did the cell viability turn out when `COc1cc2c(Oc3ccc4[nH]c(C)cc4c3F)ccnc2cc1OCC1(N)CC1` [Anlotinib Dihydrochloride] was run?
A: 0.893

Q: `COc1cc(CCC(=O)CC(=O)CCc2ccc(O)c(OC)c2)ccc1O` [Tetrahydro Curcumin] was tested. Which cell viability did it give?
A: 0.985

Q: How did the cell viability turn out when `CCC(N)(C(=O)O)c1ccc(C(=O)O)cc1` (stereo unspecified) was run?
A: 0.886

Q: How did the cell viability turn out when `CC(=O)c1ccc(S(=O)(=O)NC(=O)NC2CCCCC2)cc1` [Acetohexamide] was run?
A: 0.876

Q: For `Cc1c(-c2ccnn2C)cc(C(=O)NCc2ccc(S(C)(=O)=O)cn2)c(=O)n1-c1cccc(C(F)(F)F)c1` [Alvelestat], which cell viability is on record?
A: 1

Q: Which cell viability does the source give for `O=C(Nc1ccc(OC(F)(F)F)cc1)c1sccc1NCc1ccnc2ccccc12` here?
A: 1.02

Q: `CCCCCCCCCCCCCCCCCCOP(=O)([O-])OC1CC[N+](C)(C)CC1` [Perifosine] was tested. Which cell viability did it give?
A: 0.914

Q: How did the cell viability turn out when `CC(=O)Nc1cccc2c1c(Sc1ccc(Cl)cc1)c(C)n2CC(=O)O` was run?
A: 1.1

Q: Which cell viability does the source give for `COc1ccc(CN(CCN(C)C)c2ccccn2)cc1` [Pyrilamine maleate] here?
A: 1.05

Q: With `CC(COc1ccccc1)N(CCCl)Cc1ccccc1` (stereo unspecified) [Phenoxybenzamine hydrochloride] as the compound, how does the cell viability read?
A: 1.02

Q: Which cell viability does the source give for `Nc1ncn([C@@H]2O[C@H](CO)[C@@H](O)[C@H]2O)c(=O)n1` [5-Azacytidine] here?
A: 1.05

Q: Which cell viability does the source give for `CC(C)C[C@H](NC(=O)[C@@H](COC(C)(C)C)NC(=O)[C@H](Cc1ccc(O)cc1)NC(=O)[C@H](CO)NC(=O)[C@H](Cc1c[nH]c2ccccc12)NC(=O)[C@H](Cc1cnc[nH]1)NC(=O)[C@@H]1CCC(=O)N1)C(=O)N[C@@H](CCCNC(=N)N)C(=O)N1CCC[C@H]1C(=O)NNC(N)=O` [Goserelin acetate] here?
A: 1.04

Q: Which cell viability does the source give for `COc1cccc(-c2ccc(NC(=O)C3=C(C(=O)O)CCC3)c(F)c2)c1` [Vidofludimus] here?
A: 1.08

Q: `Cc1cc(=O)oc2cc(O)ccc12` [4-Methylumbelliferone] was tested. Which cell viability did it give?
A: 0.993

Q: How did the cell viability turn out when `C/C=C1/[C@H](O[C@@H]2O[C@H](CO)[C@@H](O)[C@H](O)[C@H]2O)OC=C(C(=O)OC)[C@H]1CC(=O)OCCc1ccc(O)c(O)c1` [Oleuropein] was run?
A: 0.897

Q: `CC(C)(C)Cn1c(N)nc2ccc(-c3[nH]c(C(C)(C)C)nc3-c3ccc(F)cc3)nc21` [Ralimetinib Mesylate] was tested. Which cell viability did it give?
A: 0.887

Q: For `COc1ccc(C(=O)CC2(O)C(=O)Nc3c(Cl)ccc(Cl)c32)cc1` (stereo unspecified), which cell viability is on record?
A: 0.934

Q: With `C[C@@H]1CN(C(=O)c2ccc(NC(=O)c3cc(O[C@H](C)c4c(Cl)ccc(F)c4Cl)c(N)nn3)cc2)C[C@H](C)N1` [Ensartinib] as the compound, how does the cell viability read?
A: 1

Q: For `Cc1cc(C#N)c(N)s1` [2-Amino-5-methyl-3-thiophenecarbonitrile], which cell viability is on record?
A: 0.878

Q: With `O=c1[nH]cnc2c1ncn2[C@H]1C[C@H](O)[C@@H](CO)O1` [2'-Deoxyinosine] as the compound, how does the cell viability read?
A: 0.898

Q: Which cell viability does the source give for `CCOC(=O)c1ccc(OC(=O)CCCCCNC(=N)N)cc1` [Gabexate mesylate] here?
A: 1.04

Q: For `CN(Cc1ccccc1)c1ccc2cc(C(=O)O)c(=O)oc2c1`, which cell viability is on record?
A: 0.789

Q: How did the cell viability turn out when `CCOC(=O)[C@H](CCc1ccccc1)N[C@H]1CCc2ccccc2N(CC(=O)O)C1=O` [Benazepril hydrochloride] was run?
A: 1.08

Q: How did the cell viability turn out when `Cn1cc(-c2ccc(F)c(C(F)(F)F)c2)nc1C1CCN(c2ncnc3[nH]ncc23)CC1` was run?
A: 0.96

Q: How did the cell viability turn out when `O=C(Nc1c[nH]nc1-c1nc2ccc(CN3CCOCC3)cc2[nH]1)NC1CC1` was run?
A: 0.562

Q: For `CC1(C)Cc2c(sc(NC(=O)c3ccn[nH]3)c2C(N)=O)C(C)(C)O1`, which cell viability is on record?
A: 0.899

Q: Which cell viability does the source give for `C[C@@H]1O[C@@H](Oc2c(-c3cc(O)c(O)c(O)c3)oc3cc(O)cc(O)c3c2=O)[C@H](O)[C@H](O)[C@H]1O` [Myricetrin] here?
A: 1.08

Q: With `CC(C)[C@H]1C(=O)N[C@@H](CCCNC(=N)N)C(=O)NCC(=O)N[C@@H](CC(=O)O)C(=O)N[C@H](Cc2ccccc2)C(=O)N1C` [Cilengitide] as the compound, how does the cell viability read?
A: 0.82

Q: How did the cell viability turn out when `O=C(c1cccc(Cl)c1F)N1CCN(Cc2cccc(Nc3nccs3)n2)CC1` was run?
A: 0.772

Q: With `COc1cc(OC)c2c(=O)[nH]c(-c3cc(C)c(OCCO)c(C)c3)nc2c1` [Apabetalone] as the compound, how does the cell viability read?
A: 0.986

Q: How did the cell viability turn out when `COc1cccc(NC(=O)/C=C/c2ccc(Cl)cc2)c1` was run?
A: 0.957

Q: Which cell viability does the source give for `CO/N=C(\C(=O)N[C@@H]1C(=O)N2C(C(=O)O)=C(CSc3nc(=O)c(O)nn3C)CS[C@H]12)c1csc(N)n1` [Ceftriaxone sodium] here?
A: 1.12

Q: `COc1ccccc1C(=O)Nc1cc2c(cc1N1CCCCC1)n(C)c(=O)n2C` was tested. Which cell viability did it give?
A: 0.977

Q: `O=C(Nc1cccc2c(=O)cc(-c3nnn[nH]3)oc12)c1ccc(OCCCCc2ccccc2)cc1` [Pranlukast] was tested. Which cell viability did it give?
A: 1.03

Q: `CNC(=O)c1ccc(Nc2nc(OC3CCCC3)c3c(-c4ccc5nc(C)oc5c4)c[nH]c3n2)c(OC)c1` was tested. Which cell viability did it give?
A: 1.09

Q: Which cell viability does the source give for `Cc1ccc(C(=O)Nc2ccc(CN3CCN(C)CC3)c(C(F)(F)F)c2)cc1C#Cc1cnc2cccnn12` [Ponatinib] here?
A: 0.834

Q: Which cell viability does the source give for `CC(C)(C)NC[C@H](O)COc1nsnc1N1CCOCC1` [Timolol Maleate] here?
A: 0.997

Q: For `O=C1Nc2ccc(CN3C(=O)CSC3=O)cc2/C1=C/c1cc(CN2CCOCC2)c[nH]1`, which cell viability is on record?
A: 0.954

Q: For `NCCCC[C@H](N[C@@H](CCc1ccccc1)C(=O)O)C(=O)N1CCC[C@H]1C(=O)O` [Lisinopril dihydrate], which cell viability is on record?
A: 1.14

Q: With `CCCCCCCCCCCCCCOc1ccc(C(=O)O)o1` as the compound, how does the cell viability read?
A: 1.1

Q: `Cc1ccc(Nc2nnc(Cc3ccncc3)c3ccccc23)cc1Br` was tested. Which cell viability did it give?
A: 0.907

Q: `Nc1nc(Cl)nc2c1ncn2[C@@H]1O[C@H](CO)[C@@H](O)[C@@H]1F` [Clofarabine] was tested. Which cell viability did it give?
A: 0.471

Q: With `COc1ccc(-c2cc(=O)c3c(O)cc(O)cc3o2)cc1O` [Diosmetin] as the compound, how does the cell viability read?
A: 0.988

Q: For `CN1CC[C@H](c2c(O)cc(O)c3c(=O)cc(-c4ccccc4Cl)oc23)[C@H](O)C1` [Flavopiridol hydrochloride], which cell viability is on record?
A: 0.745

Q: Which cell viability does the source give for `NCCCNc1ccc(Nc2nccc(Nc3cc(C4CC4)[nH]n3)n2)cc1` here?
A: 0.779

Q: For `CN(C)Cc1c(C(=O)NCCOc2ccc(C(=O)NO)cc2)oc2ccccc12`, which cell viability is on record?
A: 0.823

Q: How did the cell viability turn out when `COCCN1CCN(Cc2ccc(-c3n[nH]c4c3C(=O)c3c(NC(=O)NN5CCOCC5)cccc3-4)cc2)CC1` was run?
A: 0.3

Q: For `O=C1CN2Cc3c(ccc(Cl)c3Cl)N=C2N1` [Anagrelide], which cell viability is on record?
A: 1.09

Q: Which cell viability does the source give for `CC(=O)N1c2ccc(-c3ccc(C(=O)O)cc3)cc2[C@H](Nc2ccc(Cl)cc2)C[C@@H]1C` here?
A: 0.869

Q: `CC(=O)c1cnc2ccc(-c3cc(Cl)c(O)c(Cl)c3)nc2c1N[C@H]1CC[C@H](CN(C)C)CC1` was tested. Which cell viability did it give?
A: 0.664

Q: For `Nc1nc(F)nc2c1ncn2[C@@H]1O[C@H](CO)[C@@H](O)[C@@H]1O` [Fludarabine], which cell viability is on record?
A: 0.93

Q: For `COc1ccc(C=O)c(O)c1` [4-Methoxysalicylaldehyde], which cell viability is on record?
A: 0.873
